Our source for the cytotoxicity call and growth inhibition call values is the antibiotic and cytotoxicity screens of Wong et al. (2023).

The subject of one assay is HSkMC. The assay is described as follows: cytotoxicity call (relative viability < 0.9). The settings on record: 10 µM.
The next assay concerns HepG2. The assay is described as follows: cytotoxicity call (relative viability < 0.9). The settings on record: 10 µM.
In the next assay the test system is S. aureus RN4220. Kind of assay: growth inhibition call (relative growth <= 0.2). As to conditions: 50 µM.

Some of the results follow.

With `O=C(CCCCCCC(=O)N/N=C/[C@H](O)[C@@H](O)[C@H](O)[C@H](O)CO)NO`, the cytotoxicity call in the assay on HSkMC and with HepG2 was “inactive” each time. For the same compound, in the assay with S. aureus RN4220, the growth inhibition call is “inactive”.
As for `OCc1cc(O)c2c(O)c3c(O)cccc3c(O[C@@H]3O[C@H](CO)[C@@H](O)[C@H](O)[C@H]3O)c2c1`, the cytotoxicity call in the assay on HSkMC is “inactive”. The cytotoxicity call with HepG2 is “active”. Moreover, the growth inhibition call in the assay with S. aureus RN4220 is “inactive”.
Regarding `C[C@H](CO)N1C[C@H](C)[C@H](CN(C)C(=O)Nc2ccccc2)Oc2cc(C#C[C@@H](C)O)ccc2S1(=O)=O`, the cytotoxicity call in the assay on HSkMC and in the assay on HepG2 was “inactive” each time. Also, the growth inhibition call with S. aureus RN4220 is “inactive”.
Take `C[C@@H]1CN([C@@H](C)CO)C(=O)c2cc(NC(=O)Nc3ccc(C(F)(F)F)cc3)ccc2O[C@@H](C)CCCCO[C@@H]1CN(C)C(=O)Nc1ccc2c(c1)OCO2`: the cytotoxicity call in the assay on HSkMC and in the assay on HepG2 was “inactive” in each case. The growth inhibition call in the assay on S. aureus RN4220 is “inactive”.
With `C[C@@H]1CN([C@@H](C)CO)C(=O)c2cc(NC(=O)CCN3CCOCC3)ccc2O[C@@H]1CN(C)C(=O)Nc1ccc(F)cc1`, the cytotoxicity call in the assay on HSkMC and in the assay on HepG2 was “inactive” throughout. The growth inhibition call in the assay with S. aureus RN4220 was “inactive”.
Turning to `C[C@H]1CN([C@@H](C)CO)C(=O)CCCn2nncc2CO[C@H]1CN(C)S(=O)(=O)c1ccc(-n2cccn2)cc1`, the cytotoxicity call in the assay with HSkMC and in the assay with HepG2 was “inactive” in each case. Besides, the growth inhibition call in the assay with S. aureus RN4220 is “inactive”.
In the case of `COCCOC(=O)N1C(=O)[C@@]2(c3cc(C#Cc4ccc(OC)cc4)ccc31)[C@H](C(N)=O)[C@H]1C(=O)O[C@H](c3ccccc3)[C@H](c3ccccc3)N1[C@@H]2c1ccccc1OCCO`, the cytotoxicity call in the assay with HSkMC and in the assay on HepG2 was “inactive” each time. The growth inhibition call in the assay with S. aureus RN4220 is “inactive”.
Consider `O=C(C[C@H]1CC[C@H](NS(=O)(=O)c2ccc(F)cc2)[C@H](CO)O1)NCc1ccc(Cl)c(Cl)c1`, for which the cytotoxicity call with HSkMC and in the assay on HepG2 was “inactive” throughout. The growth inhibition call with S. aureus RN4220 is “inactive”.
Take `C[C@@H]1CCCCO[C@H](CN(C)C(=O)C2CCCCC2)[C@H](C)CN([C@H](C)CO)C(=O)c2cc(NS(=O)(=O)c3ccccc3)ccc2O1`: the cytotoxicity call in the assay on HSkMC and with HepG2 was “inactive” each time. Also, in the assay on S. aureus RN4220, the growth inhibition call was “inactive”.
In the case of `Cc1noc(C)c1NC(=O)N(C)C[C@H]1OCCCC[C@@H](C)Oc2ccc(NC(=O)Nc3ccc(F)cc3)cc2C(=O)N([C@@H](C)CO)C[C@H]1C`, the cytotoxicity call with HSkMC and with HepG2 was “inactive” throughout. For the same compound, the growth inhibition call with S. aureus RN4220 is “inactive”.
Take `COc1ccc(S(=O)(=O)Nc2ccc3c(c2)CC(=O)N([C@H](C)CO)C[C@@H](C)[C@@H](CN(C)S(=O)(=O)c2c(C)noc2C)O3)cc1`: the cytotoxicity call with HSkMC and in the assay with HepG2 was “inactive” each time. Also, in the assay with S. aureus RN4220, the growth inhibition call is “inactive”.
`CNC[C@@H](O)[C@@H](O)[C@@H](O)[C@@H](O)CO`: the cytotoxicity call in the assay on HSkMC and in the assay on HepG2 was “inactive” each time. Moreover, in the assay on S. aureus RN4220, the growth inhibition call was “inactive”.
On to `Cc1noc(C)c1S(=O)(=O)N(C)C[C@H]1Oc2ccc(NC(=O)C3CCCCC3)cc2CC(=O)N([C@H](C)CO)C[C@H]1C`, for which the cytotoxicity call in the assay on HSkMC and with HepG2 was “inactive” each time. In addition, the growth inhibition call in the assay with S. aureus RN4220 was “inactive”.
Take `C[n+]1ccccc1/C=N/O`: the cytotoxicity call in the assay on HSkMC and in the assay on HepG2 was “inactive” each time. The growth inhibition call with S. aureus RN4220 was “inactive”.
`COCC#Cc1ccc2c(c1)O[C@@H](CN(C)S(=O)(=O)c1cccc(F)c1)[C@@H](C)CN([C@H](C)CO)S2(=O)=O`: the cytotoxicity call with HSkMC and with HepG2 was “inactive” throughout. Also, in the assay on S. aureus RN4220, the growth inhibition call was “inactive”.
With `COc1ccc(CN(C)C[C@H]2Oc3ccc(NC(=O)Nc4ccc(C(F)(F)F)cc4)cc3CC(=O)N([C@@H](C)CO)C[C@H]2C)cc1`, the cytotoxicity call with HSkMC and in the assay with HepG2 was “active” throughout. Besides, the growth inhibition call in the assay with S. aureus RN4220 is “inactive”.
In the case of `C[C@@H]1CN([C@H](C)CO)C(=O)c2cc(NC(=O)Cn3cnnn3)ccc2O[C@H]1CN(C)Cc1ccccc1`, the cytotoxicity call in the assay on HSkMC and in the assay with HepG2 was “inactive” each time. Besides, the growth inhibition call in the assay with S. aureus RN4220 was “inactive”.
With `CO[C@H]1CN(C)C(=O)c2ccc(NS(C)(=O)=O)cc2OC[C@H](C)N(C(=O)C2CCOCC2)C[C@@H]1C`, the cytotoxicity call with HSkMC and in the assay on HepG2 was “inactive” each time. Also, the growth inhibition call in the assay with S. aureus RN4220 was “inactive”.
With `CCC1OC(=O)C(C)C(OC2CC(C)(OC)C(O)C(C)O2)C(C)C(OC2OC(C)CC(N(C)C)C2O)C(C)(O)CC(C)C(=NOCOCCOC)C(C)C(O)C1(C)O` (configuration not stated), the cytotoxicity call in the assay with HSkMC and with HepG2 was “inactive” each time. Further, in the assay with S. aureus RN4220, the growth inhibition call is “active”.
For `C[C@H]1CN([C@@H](C)CO)C(=O)c2cc(NC(=O)Cc3ccccc3)ccc2O[C@@H]1CN(C)Cc1ccc(-c2ccccc2)cc1`, the cytotoxicity call in the assay with HSkMC is “inactive”. Moreover, the cytotoxicity call in the assay on HepG2 was “active”. Besides, the growth inhibition call in the assay on S. aureus RN4220 was “inactive”.
Turning to `COCC(=O)N(C)C[C@@H]1Oc2cc(C#CCN(C)C)ccc2S(=O)(=O)N([C@H](C)CO)C[C@H]1C`, the cytotoxicity call in the assay on HSkMC (human skeletal muscle cells) and with HepG2 was “inactive” in each case. For the same compound, the growth inhibition call in the assay on S. aureus RN4220 was “inactive”.
For `CC(=O)N(C)[C@H]1C(=O)C(=O)c2ccccc2C1=O`, the cytotoxicity call in the assay with HSkMC and with HepG2 was “inactive” throughout. Moreover, in the assay with S. aureus RN4220, the growth inhibition call is “inactive”.
In the case of `C[C@@H]1CN([C@H](C)CO)C(=O)c2cc(NC(=O)CCN3CCOCC3)ccc2O[C@H]1CN(C)C(=O)Nc1ccc2c(c1)OCO2`, the cytotoxicity call with HSkMC is “inactive”. Besides, in the assay with HepG2, the cytotoxicity call was “active”. Further, the growth inhibition call in the assay with S. aureus RN4220 is “inactive”.
In the case of `CC(C)NC(=O)N(C)C[C@@H]1Oc2ccc(NC(=O)c3ccncc3)cc2CC(=O)N([C@@H](C)CO)C[C@H]1C`, the cytotoxicity call in the assay with HSkMC and in the assay on HepG2 was “inactive” each time. The growth inhibition call in the assay on S. aureus RN4220 is “inactive”.
